Assay results as given in publication PMC12889043.
Results are given in words; binding and its absence hold for the method and conditions named. In cells and extracts the contact can be indirect. Some binding calls cover weakened binding; strength is not graded here. Tags and fused reporters may be left off the sequences shown.

Protein sequences, listed by entry. Tags and fused reporters are not part of them.
UniProt Q7Z434: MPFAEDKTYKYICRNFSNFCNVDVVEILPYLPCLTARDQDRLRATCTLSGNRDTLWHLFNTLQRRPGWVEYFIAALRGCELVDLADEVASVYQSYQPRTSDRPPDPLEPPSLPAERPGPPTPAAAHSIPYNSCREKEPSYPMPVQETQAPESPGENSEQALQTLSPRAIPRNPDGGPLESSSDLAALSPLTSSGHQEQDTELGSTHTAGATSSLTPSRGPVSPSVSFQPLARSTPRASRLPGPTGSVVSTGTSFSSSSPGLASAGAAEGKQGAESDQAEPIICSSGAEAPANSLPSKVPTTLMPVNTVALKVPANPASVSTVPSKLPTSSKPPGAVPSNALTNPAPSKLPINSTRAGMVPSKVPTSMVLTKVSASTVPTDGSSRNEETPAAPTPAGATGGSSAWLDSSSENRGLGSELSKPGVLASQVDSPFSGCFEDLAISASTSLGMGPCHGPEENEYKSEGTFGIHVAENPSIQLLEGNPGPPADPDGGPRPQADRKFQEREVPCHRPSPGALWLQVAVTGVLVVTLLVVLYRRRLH
UniProt P19474: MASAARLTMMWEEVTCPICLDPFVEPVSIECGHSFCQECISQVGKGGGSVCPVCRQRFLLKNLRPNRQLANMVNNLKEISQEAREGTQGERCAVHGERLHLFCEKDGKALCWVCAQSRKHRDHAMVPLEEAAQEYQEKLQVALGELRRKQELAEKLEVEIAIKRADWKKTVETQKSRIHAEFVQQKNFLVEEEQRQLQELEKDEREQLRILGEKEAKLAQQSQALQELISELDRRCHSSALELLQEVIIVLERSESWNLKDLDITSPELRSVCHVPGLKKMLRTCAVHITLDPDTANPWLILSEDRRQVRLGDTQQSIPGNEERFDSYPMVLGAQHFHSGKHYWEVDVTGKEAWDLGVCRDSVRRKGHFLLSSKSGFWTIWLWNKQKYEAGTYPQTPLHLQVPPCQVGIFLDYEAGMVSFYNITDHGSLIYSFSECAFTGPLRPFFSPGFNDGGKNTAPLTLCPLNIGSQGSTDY

Legend:
[1] = molecular target: T1, Flag-tagged full-length human RND3 (pcDNA3.1-Flag-hRND3) (human) (UniProt P61587); assay: co-IP; HEK293T co-transfected with Flag-RND3 and one HA-tagged adaptor, 24 h; RIPA lysate; anti-Flag agarose affinity gel overnight at 4 C, washed with cold TBS; blot with anti-HA
T1 sequence: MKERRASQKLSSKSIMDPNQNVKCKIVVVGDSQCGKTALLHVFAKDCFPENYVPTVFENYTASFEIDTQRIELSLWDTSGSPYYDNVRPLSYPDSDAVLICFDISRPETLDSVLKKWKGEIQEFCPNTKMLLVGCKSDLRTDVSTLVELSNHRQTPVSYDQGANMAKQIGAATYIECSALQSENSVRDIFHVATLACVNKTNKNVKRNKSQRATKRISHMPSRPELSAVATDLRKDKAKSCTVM

[2] = molecular target: T2, HA-IKKε (IκB kinase epsilon) (UniProt Q14164); assay: co-IP; HEK293T transfected with Myc-hRND3, HA-IKKε and Flag-TRIM21; after 12 h infected with EMCV at MOI 0.01 for 12 h; IP with anti-HA antibody (1:100); blot with anti-Flag
T2 sequence: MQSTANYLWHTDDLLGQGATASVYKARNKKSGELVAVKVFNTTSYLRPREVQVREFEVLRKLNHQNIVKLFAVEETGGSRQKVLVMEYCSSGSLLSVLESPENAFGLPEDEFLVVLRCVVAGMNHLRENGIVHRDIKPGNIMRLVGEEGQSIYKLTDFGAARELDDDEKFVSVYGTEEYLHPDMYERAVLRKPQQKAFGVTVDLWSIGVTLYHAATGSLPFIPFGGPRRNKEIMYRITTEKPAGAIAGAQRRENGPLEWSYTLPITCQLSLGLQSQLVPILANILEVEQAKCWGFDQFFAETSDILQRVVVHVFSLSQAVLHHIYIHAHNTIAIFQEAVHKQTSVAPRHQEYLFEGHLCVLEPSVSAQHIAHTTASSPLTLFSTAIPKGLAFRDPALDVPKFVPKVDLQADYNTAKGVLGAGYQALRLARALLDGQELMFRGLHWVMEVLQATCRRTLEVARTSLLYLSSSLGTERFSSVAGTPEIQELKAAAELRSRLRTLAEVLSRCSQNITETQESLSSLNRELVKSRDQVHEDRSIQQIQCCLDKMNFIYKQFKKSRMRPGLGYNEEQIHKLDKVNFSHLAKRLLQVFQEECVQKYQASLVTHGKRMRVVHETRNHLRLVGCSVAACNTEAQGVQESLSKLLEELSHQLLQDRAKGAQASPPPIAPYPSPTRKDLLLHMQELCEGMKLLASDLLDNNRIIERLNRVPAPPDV

Substance	binding [1]	binding [2]
HA-MAVS (from UniProt Q7Z434 1-540)	no binding	
Flag-TRIM21 (from UniProt P19474 1-475)		binds
